Results as given in the supplement of paper PMC8728848.
The other results are listed elsewhere or left out.

Tests used:
Assay in all cases: glycan array binding signal (z-score within array); higher = stronger binding
Conditions in all cases: glycan notation: IUPAC condensed, linker removed
Fuc(a1-2)[Gal(a1-3)]Gal = target: Fuc(a1-2)[Gal(a1-3)]Gal
Summary of the method: (§1)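 Negative Z-scores can be read as non-binding. The Z-score is calculated within each array and then averaged across arrays of one protein sequence at different concentrations or buffers and across linkers. Arrays, 3228 in all, were curated from the Consortium for Functional Glycomics database and kept only where the protein sequence was available.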

[1] = target: Fuc(a1-2)[Gal(a1-3)]Gal(b1-3)GlcNAc
Summary of the method: as §1

[2] = target: Fuc(a1-2)[Gal(a1-3)]Gal(b1-3)GlcNAc(b1-2)Man(a1-3)[Fuc(a1-2)[Gal(a1-3)]Gal(b1-3)GlcNAc(b1-2)Man(a1-6)]Man(b1-4)GlcNAc(b1-4)GlcNAc
Summary of the method: as §1

[3] = target: Fuc(a1-2)[Gal(a1-3)]Gal(b1-4)Glc
Summary of the method: as §1

[4] = target: Fuc(a1-2)[Gal(a1-3)]Gal(b1-4)GlcNAc
Summary of the method: as §1

[5] = target: Fuc(a1-2)[Gal(a1-3)]Gal(b1-4)GlcNAc(b1-2)Man(a1-3)[Fuc(a1-2)[Gal(a1-3)]Gal(b1-4)GlcNAc(b1-2)Man(a1-6)]Man(b1-4)GlcNAc(b1-4)GlcNAc
Summary of the method: as §1

[6] = target: Fuc(a1-2)[Gal(a1-3)]Gal(b1-4)[Fuc(a1-3)]GlcNAc
Summary of the method: as §1

[7] = target: Fuc(a1-2)[Gal(a1-4)]Gal(b1-4)GlcNAc
Summary of the method: as §1

[8] = target: Fuc(a1-2)[GalNAc(a1-3)]Gal
Summary of the method: as §1

[9] = target: Fuc(a1-2)[GalNAc(a1-3)]Gal(b1-3)GalNAc(a1-3)[Fuc(a1-2)]Gal(b1-4)GlcNAc
Summary of the method: as §1

[10] = target: Fuc(a1-2)[GalNAc(a1-3)]Gal(b1-3)GlcNAc
Summary of the method: as §1

[11] = target: Fuc(a1-2)[GalNAc(a1-3)]Gal(b1-3)GlcNAc(b1-2)Man(a1-3)[Fuc(a1-2)[GalNAc(a1-3)]Gal(b1-3)GlcNAc(b1-2)Man(a1-6)]Man(b1-4)GlcNAc(b1-4)GlcNAc
Summary of the method: as §1

[12] = target: Fuc(a1-2)[GalNAc(a1-3)]Gal(b1-4)Glc
Summary of the method: as §1

[13] = target: Fuc(a1-2)[GalNAc(a1-3)]Gal(b1-4)GlcNAc
Summary of the method: as §1

[14] = target: Fuc(a1-2)[GalNAc(a1-3)]Gal(b1-4)GlcNAc(b1-2)Man(a1-3)[Fuc(a1-2)[GalNAc(a1-3)]Gal(b1-4)GlcNAc(b1-2)Man(a1-6)]Man(b1-4)GlcNAc(b1-4)GlcNAc
Summary of the method: as §1

[15] = target: Fuc(a1-2)[GalNAc(a1-3)]Gal(b1-4)GlcNAc(b1-3)Gal(b1-4)GlcNAc
Summary of the method: as §1

[16] = target: Fuc(a1-2)[GalNAc(a1-3)]Gal(b1-4)GlcNAc(b1-3)Gal(b1-4)GlcNAc(b1-3)Gal(b1-4)GlcNAc
Summary of the method: as §1

[17] = target: Fuc(a1-2)[GalNAc(a1-3)]Gal(b1-4)[Fuc(a1-3)]GlcNAc
Summary of the method: as §1

[18] = target: Fuc(a1-2)[GalNAc(a1-4)]Gal(b1-4)GlcNAc
Summary of the method: as §1

[19] = target: Fuc(a1-2)[GalNAc(b1-3)]Gal
Summary of the method: as §1

Fuc(a1-3)GlcNAc = target: Fuc(a1-3)GlcNAc
Summary of the method: as §1

[20] = target: Fuc(a1-3)[Gal(b1-4)]Glc6S
Summary of the method: as §1

[21] = target: Fuc(a1-3)[Gal(b1-4)]GlcNAc
Summary of the method: as §1

[22] = target: Fuc(a1-3)[Gal(b1-4)]GlcNAc(b1-2)Man(a1-3)[Fuc(a1-3)[Gal(b1-4)]GlcNAc(b1-2)Man(a1-6)]Man(b1-4)GlcNAc(b1-4)GlcNAc
Summary of the method: as §1

[23] = target: Fuc(a1-3)[Gal(b1-4)]GlcNAc(b1-3)Gal(b1-3)[Fuc(a1-4)]GlcNAc
Summary of the method: as §1

[24] = target: Fuc(a1-3)[Gal(b1-4)]GlcNAc(b1-3)GalNAc
Summary of the method: as §1

[25] = target: Fuc(a1-3)[Gal(b1-4)]GlcNAc(b1-4)Gal(b1-4)[Fuc(a1-3)]GlcNAc
Summary of the method: as §1

[26] = target: Fuc(a1-3)[Gal(b1-4)]GlcNAc(b1-4)Gal(b1-4)[Fuc(a1-3)]GlcNAc(b1-4)Gal(b1-4)[Fuc(a1-3)]GlcNAc
Summary of the method: as §1

[27] = target: Fuc(a1-3)[Gal(b1-4)]GlcNAc(b1-6)[Gal(b1-3)GlcNAc(b1-3)]Gal(b1-4)Glc
Summary of the method: as §1

[28] = target: Fuc(a1-3)[Gal(b1-4)]GlcNAc6S
Summary of the method: as §1

B1: SLP (Clostridium difficile), Q183M8 (protein)
chain: MATTGTQGYTVVKNDWKKAVKQLQDGLKDNSIGKITVSFNDGVVGEVAPKSANKKADRDAAAEKLYNLVNTQLDKLGDGDYVDFSVDYNLENKIITNQADAEAIVTKLNSLNEKTLIDIATKDTFGMVSKTQDSEGKNVAATKALKVKDVATFGLKSGGSEDTGYVVEMKAGAVEDKYGKVGDSTAGIAINLPSTGLEYAGKGTTIDFNKTLKVDVTGGSTPSAVAVSGFVTKDDTDLAKSGTINVRVINAKEESIDIDASSYTSAENLAKRYVFDPDEISEAYKAIVALQNDGIESNLVQLVNGKYQVIFYPEGKRLETKSLEHHHHHH
Fuc(a1-2)[Gal(a1-3)]Gal
  glycan array binding signal (z-score): -0.192
[1]
  glycan array binding signal (z-score): -0.187
[2]
  glycan array binding signal (z-score): -0.152
[3]
  glycan array binding signal (z-score): -0.196
[4]
  glycan array binding signal (z-score): -0.186
[5]
  glycan array binding signal (z-score): -0.175
[6]
  glycan array binding signal (z-score): -0.093
[7]
  glycan array binding signal (z-score): -0.135
[8]
  glycan array binding signal (z-score): -0.178
[9]
  glycan array binding signal (z-score): -0.198
[10]
  glycan array binding signal (z-score): -0.175
[11]
  glycan array binding signal (z-score): -0.152
[12]
  glycan array binding signal (z-score): -0.129
[13]
  glycan array binding signal (z-score): -0.19
[14]
  glycan array binding signal (z-score): -0.156
[15]
  glycan array binding signal (z-score): -0.209
[16]
  glycan array binding signal (z-score): -0.15
[17]
  glycan array binding signal (z-score): -0.147
[18]
  glycan array binding signal (z-score): -0.179
[19]
  glycan array binding signal (z-score): -0.158
Fuc(a1-3)GlcNAc
  glycan array binding signal (z-score): -0.168
[20]
  glycan array binding signal (z-score): -0.171
[21]
  glycan array binding signal (z-score): -0.151
[22]
  glycan array binding signal (z-score): -0.171
[23]
  glycan array binding signal (z-score): -0.175
[24]
  glycan array binding signal (z-score): -0.115
[25]
  glycan array binding signal (z-score): -0.064
[26]
  glycan array binding signal (z-score): -0.187
[27]
  glycan array binding signal (z-score): -0.171
[28]
  glycan array binding signal (z-score): -0.143
